Data published in PMC9226319, “Peripherally restricted transthyretin-based delivery system for probes and therapeutics avoiding opioid-related side effects” (Nature Communications, 2022).
Where “and” joins values, the source holds several entries; their conditions need not be identical. Equal entries are not always repeated. Where two headings read alike, the source gives them in different places.

Tested on: Jurkat cell line
Details: for % Cell viability: Jurkat cell line MTT assay, replicates

Structure (SMILES)	cytotoxicity, Jurkat (10 and 100 µM, 72 h, MTT)	% Cell viability (10 μM)	% Cell viability (100 μM)	% Cell viability (1 μM)
C=CCN1CC[C@]23c4c5ccc(O)c4O[C@H]2[C@@H](OCCOCCOCCOCCOCCOCCOCCOC)CC[C@@]3(O)[C@H]1C5 [Naloxegol, reference compound]	no cytotoxicity	105%	102%	
C=CCN1CC[C@]23c4c5ccc(O)c4O[C@H]2[C@@H](OCc2cn(CCNCCCCCCOc4cc(OCCCc6c(C)n[nH]c6C)cc(C(=O)O)c4)nn2)CC[C@@]3(O)[C@H]1C5 [AG10-L2-Nal]		95% and 104% and 105%	99% and 100%	
COc1cccc2c1C(=O)c1c(O)c3c(c(O)c1C2=O)C[C@@](O)(C(=O)CO)C[C@@H]3O[C@H]1C[C@H](N)[C@H](O)[C@H](C)O1 [DOX]				16% and 17%
